Counter-ions that a name gives are not always drawn. This list holds what a sample rich in lowest values left over.
test system: NCI-H2228 alectinib-DTP; assay: cell viability relative to vehicle (fraction of vehicle); NCI-H2228 is an ALK-positive lung cancer line and DTP means drug-tolerant persister; higher = less growth inhibition; conditions: 100 nM; treatment time 6 days
Summary of the method: (§1)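 Parental NCI-H2228 cells and drug-tolerant persister cells (made with 1000 nM of a targeted drug for 13 days) were seeded in 384-well plates. The next day, the 3114-agent TargetMol anti-cancer compound library was added at 100 nM, with DMSO as vehicle. After 6 days, ATP was read with the CellTiter-Glo 3D Cell Viability Assay. Each value is cell viability relative to vehicle-treated cells.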

Row | SMILES | cell viability
1 | COc1cc(N2CCN(C(C)=O)CC2)ccc1Nc1ncc(Cl)c(Nc2ccc(N3CCN(C(C)=O)CC3)cc2OC)n1 | 1.01
2 | Cc1nc2c(-c3cnc(N)nc3)nc(N3CCOCC3)nc2n1C(C)C | 0.655
3 | Cc1ccccc1-n1c(Cn2nc(-c3cccc(O)c3)c3c(N)ncnc32)nc2cccc(C)c2c1=O | 0.922
4 | CN1C2CCC1CC(OC(=O)C(O)c1ccccc1)C2 (centres undefined) [Homatropine Bromide] | 1.02
5 | CCOc1cc(NC(C)=O)ccc1C(=O)OC [Ethopabate] | 0.993
6 | Cc1ccc(C(=O)NCCCCCC(=O)Nc2ccccc2N)cc1 | 1.04
7 | COC(=O)C(CCCN=C(N)N)NS(=O)(=O)c1ccc(C)cc1 (centres undefined) [TOS-ARG-OME hydrochloride] | 0.844

test system: NCI-H2228 parental; assay: as above; conditions: 100 nM; treatment time 6 days
Summary of the method: as §1

Row | SMILES | cell viability
8 | COc1cc(N2CCN(C(C)=O)CC2)ccc1Nc1ncc(Cl)c(Nc2ccc(N3CCN(C(C)=O)CC3)cc2OC)n1 | 0.628
9 | Cc1nc2c(-c3cnc(N)nc3)nc(N3CCOCC3)nc2n1C(C)C | 0.611
10 | Cc1ccccc1-n1c(Cn2nc(-c3cccc(O)c3)c3c(N)ncnc32)nc2cccc(C)c2c1=O | 1.08
11 | CN1C2CCC1CC(OC(=O)C(O)c1ccccc1)C2 (centres undefined) [Homatropine Bromide] | 1.05
12 | CCOc1cc(NC(C)=O)ccc1C(=O)OC [Ethopabate] | 1.21
13 | Cc1ccc(C(=O)NCCCCCC(=O)Nc2ccccc2N)cc1 | 1.06
14 | COC(=O)C(CCCN=C(N)N)NS(=O)(=O)c1ccc(C)cc1 (centres undefined) [TOS-ARG-OME hydrochloride] | 1.23

— the supplement of paper PMC10600219
